Results from the supplement of paper PMC4466236.
In all, about 33,000 sequences were measured (“E-score (dimensionless, -0.5 to 0.5)”: median about -0.058, highest 2% from about 0.35 on). The list shows a part of the results.

Tested on: MvaT
Assay: PBM 8-mer E-score (mean of HK and ME arrays) (E-score (dimensionless, -0.5 to 0.5)); higher = stronger relative binding preference; most listed sequences are background and not binding sites
In short: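 Reported values are rank-based E-scores, taken as the mean of two universal arrays and parsed with a custom script. Each 8-mer score falls between -0.5 and 0.5. The arrays, ME and HK, were double-stranded 60-mers with a constant 25-mer primer region and a variable 35-mer region covering all 8-mers. They were probed, by an earlier protocol, with full-length P. aeruginosa MvaT carrying an N-terminal glutathione S-transferase fusion.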

Sequence | PBM 8-mer E-score
CCCACGCA | -0.318
ACGTGGTC | -0.214
AGTTAATG | 0.271
ACTGGATA | 0.12
CTTGCTAC | -0.0295
ATGTAGGG | -0.0431
ACACTTAA | 0.294
AACCCCGT | -0.228
GCCTAGAC | -0.376
CAGTATAA | 0.267
AAACAGTC | 0.106
AGCGAATC | -0.165
GATACTCC | 0.0038
ACATTGCC | 0.0616
CGGGAGAG | -0.265
TCGTTTCA | -0.055
CGAGTCGA | -0.198
GATACCAA | -0.0222
CTTGACGA | -0.0349
AAAGTATG | 0.216
ACGTGGTA | -0.0806
CAAAAAAG | 0.158
CTCGCAAC | -0.0813
GCCTACGC | -0.343
AATAATAG | 0.402

Sequence | PBM 8-mer E-score
CATCGCGC | -0.106
CCCTCCAA | -0.365
ACTATCTG | 0.0744
AAGTGCAT | 0.059
ACCAGAAA | 0.0617
AGGCTCAT | -0.147
ACCTGTAA | 0.0435
CCCAGTAA | 0.052
TCGAAGAA | 0.0109
ACAGAAAT | 0.154
ACATCGAG | 0.0417
TTGTAAAA | 0.277
GCGTTAAC | 0.1
CTTTATGC | -0.0172
AAATTGGC | 0.0942
AACGGCTG | -0.166
AGCGCGAG | -0.185
AAGCCACG | -0.171
CCATACAC | 0.0192
CGAGATAG | -0.0359
TAATCCGA | 0.0667
CTTAAAAG | 0.166
ACAAGATG | -0.0826
ATTCGCAG | 0.0329
ACAAGGAG | -0.284

Sequence | PBM 8-mer E-score
AAGTTAGA | 0.302
ACCAAAGC | -0.174
AGGGTGGG | -0.118
ACGCGTGC | -0.0474
AGAGCGAT | -0.176
ATCTCAGG | -0.146
AGCCAACA | 0.0763
AGCCGGCA | -0.131
CATGTTAG | 0.177
ATGATTTG | 0.182
CCTACAAC | -0.0135
GCACGTCA | -0.126
ATTTGTAG | 0.185
ATCACGTA | -0.0609
GCCACACC | -0.0459
TGGTACAA | 0.132
ACTAATCC | 0.0544
CGGGAGGC | -0.228
ATTGGATC | -0.0745
AACCGCGG | -0.119
CTGAGTTA | 0.199
TATTATGA | 0.311
GCCTGCCC | -0.211
GAGGGCCC | -0.271
AAGCGCCT | -0.184

Sequence | PBM 8-mer E-score
CGAATTTA | 0.157
GCAATGTA | 0.134
ACCCCTGC | -0.216
TAGGCATA | 0.0695
GCATTGGC | -0.247
CACTTTGA | -0.0386
AACTCACT | 0.0925
GGCCAAAC | -0.055
CATTGGCA | -0.186
AGTCTTGG | -0.0711
CGGCTAGC | -0.166
TCCCCGCA | -0.158
AAGGGGAT | -0.144
ATATTCGC | 0.249
GTCCGAGA | -0.233
CACATCGA | 0.0443
CAAAGTTG | 0.215
AAGAACAT | 0.139
CCCCCTAG | -0.314
ACGCGCAG | -0.197
GAAATCGC | 0.00463
AACTGTTC | 0.0192
AGCCCCAA | -0.198
CCACACTA | 0.108
CCTATGTC | 0.00443

Sequence | PBM 8-mer E-score
AATCCAGC | 0.0434
GATACCCC | -0.235
ACTCATCT | -0.0202
CTGGAGAA | -0.0374
CAATTCGG | -0.0541
CAGAAAAG | 0.144
AAATCTCC | -0.144
AAGTCGAT | -0.0445
CTGAATAC | -0.0272
TCATGCAA | -0.0609
AGCGATAC | 0.0789
CAGATAGG | -0.238
GTGATCAA | -0.117
AGTGCGCG | -0.0565
CCGCACGA | -0.13
ATAGCACG | 0.113
CTAATGAG | -0.253
ATGTTACC | 0.0796
AAAACGTT | 0.199
ACCGGATA | 0.0103
CAATAGTC | 0.146
CCCATGAC | -0.193
AAGGTATT | 0.152
AAGCGGTG | -0.19
CAAATAAA | 0.301

Sequence | PBM 8-mer E-score
ACGCGCCT | -0.169
GTGCGGGA | -0.138
GTGGACTA | -0.00662
GGCAGGCA | -0.254
CCTCAAGC | -0.176
CGGTAACA | 0.0755
CCTAGATA | 0.0301
GCGAGCCC | -0.282
AATAGTCG | 0.218
GCCCGTGA | -0.215
GCCTAGCC | -0.187
CGTGACCA | -0.166
CTGTAGGA | -0.18
AAGAGGCG | -0.192
AGAGCCAC | -0.08
AAGCACTT | 0.0782
ACACAACT | 0.112
AGCATTGA | -0.0767
AGGGAGCA | -0.225
TTCGTAAA | 0.0933
AGCTCATA | 0.00546
GACATCGA | 0.00909
CGCACCGC | -0.267
ATCGAGGA | -0.174
ATGTATTA | 0.399

Sequence | PBM 8-mer E-score
GGCCCGAC | -0.151
AACTCTTA | 0.21
TACTCGCA | -0.0664
AAGCTACC | -0.0511
ACACTCAA | 0.0982
GTTACGGA | -0.0357
AACGGTCC | -0.227
AAACAAGC | 0.0442
ACCTGCCC | -0.278
AATGCCAA | -0.0795
CGCTCACC | -0.263
GCTATACC | -0.136
AGCACCTG | -0.224
AGCTTACC | -0.0727
CCATCATA | 0.133
GAGGTGAC | -0.237
CGGAATGC | -0.157
ACGTCACG | -0.125
AATGGCCC | -0.0995
GAGTGTCC | -0.191
AATAACCT | 0.228
AGGCATAC | 0.0369
